{"source": "PubChem BioAssay AID1347041", "about": "(National Center for Advancing Translational Sciences (NCATS), 2019)", "note": "In all, about 480,000 compounds went through this assay and about 740 (0.15%) were called active. The inconclusive results got no clear call from the source; some entries with a clear call stand among them for comparison. Rule as the data show it: active = activity change below about -30%; inconclusive = mostly about -25% to -30%; inactive = weaker than that.", "data": [{"target": "L-lactate dehydrogenase A chain (Homo sapiens) (UniProt P00338)", "test": "qHTS assay for inhibitors of human lactate dehydrogenase;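 also: values are at about 110 or 230 µM; plate controls were DMSO wells for no effect and wells without enzyme for full effect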", "conditions": "purified LDHA, NADH/diaphorase-resazurin fluorescence; active compounds read low", "from_the_text": "LDH is a key glycolytic enzyme that catalyzes the final step in the glycolytic pathway, reducing pyruvate to lactate and regenerating NAD+ equivalents necessary for continued glycolysis. LDHA has been linked to the carcinogenesis and malignancy in numerous forms of cancers and many other diseases. Consequently, both pharma and academia have invested in significant research efforts to identify small molecule therapeutics. Such attempts have been stalled or abandoned due to limited success in discovering potent and drug-like inhibitors that can be utilized to validate LDHA in vivo as a drug target, a necessary step toward advancing such a molecule towards the clinic Towards this goal we designed and performed a quantitative high-throughput screening (qHTS) campaign to discover novel compounds that are potent inhibitors of LDHA enzyme activity and cancer cell line growth.\nThe assay was optimized to 1536-well plates. Briefly, 3 µL of human lactate dehydrogenase 5 (#A38558H, Meridian Life Science, Inc., Memphis, TN) in LDH assay buffer (200 mM Tris HCl pH 7.4, 100 microM EDTA and 0.01% Tween-20) was added to a black solid bottom 1536-well assay plate (Greiner Bio-One) using a BioRAPTR FRD dispenser (Beckman Coulter, Brea, CA). A 1536-well pintool dispenser outfitted with 20 nL pins (Wako Automation, San Diego, CA) was used to transfer 23 nL of DMSO-solubilized compound (both library and vehicle controls) to each 1536-well assay plate. Following compound transfer, 1 µL of substrate solution containing NADH and sodium pyruvate (Sigma-Aldrich, St. Louis, MO) in LDH assay buffer was dispensed via BioRAPTR FRD to initiate the reaction. Final concentrations in the 4 microL reaction volume were 2 nM LDHA enzyme, 0.06 mM NADH and 0.2 mM sodium pyruvate. Following a 5 minute incubation period at room temperature, 1 µL of detection reagent (C. kluyveri diaphorase (Sigma-Aldrich) and resazurin sodium salt (Sigma-Aldrich) in LDH assay buffer) was added to a total volume of 5 µL. Final concentrations of detection reagents were 0.133 mg/mL diaphorase and 37 µM resazurin. Plates were immediately transferred to a ViewLux microplate imager (PerkinElmer, Waltham, MA), and any resulting resorufin fluorescence was measured (ex540, em590 nm) at 0 and 20 minutes. Fluorescence was normalized using enzyme-free and DMSO-treated control wells on each plate.", "values": [{"smiles": "COC(=O)C1=Nc2ccccc2/C1=C\\c1c(O)n(-c2ccc(Br)cc2)c(=O)[nH]c1=O", "activity change": "active: -67.1%"}, {"smiles": "C=C1C(O)(c2ccccc2)C2CC[N+]1(C)CC2", "note": "(stereo not drawn)", "activity change": "active: -37.5%"}, {"smiles": "CCc1nnc(NS(=O)(=O)c2ccc(N=Cc3c(O)n(-c4ccc(Cl)cc4)c(=O)[nH]c3=O)cc2)s1", "activity change": "inconclusive: -27.7%"}, {"smiles": "COc1ccccc1CCNCc1cccs1", "activity change": "inconclusive: -26.5%"}, {"smiles": "Oc1c(Br)c(Br)c(Br)c(Br)c1Br", "activity change": "inconclusive: -27%"}, {"smiles": "CC1CCCC(C2(O)C(=O)Nc3ccccc32)C1=O", "note": "(stereo not drawn)", "activity change": "inconclusive: -26.1%"}, {"smiles": "O=C(Cc1ccccc1)N1CCN(CCCc2ccccc2)CC1", "activity change": "inconclusive: -28.5%"}, {"smiles": "Cc1cccc(OCC(=O)N2CCN(Cc3cccnc3)CC2)c1", "activity change": "active: -33.4%"}, {"smiles": "COc1ccc(CN2CCN(C(=O)Cc3ccccc3)CC2)c(OC)c1", "activity change": "inconclusive: -25.3%"}, {"smiles": "CCOc1ccc(N2C(=O)CC(=O)NC2=O)cc1", "activity change": "inactive: -5.81%"}, {"smiles": "Cc1sc2ccccc2c1CC1=NCCN1", "activity change": "inconclusive: -25.8%"}, {"smiles": "COC(=O)C1=Nc2ccccc2/C1=C\\c1c(O)n(-c2cc(OC)ccc2OC)c(=O)[nH]c1=O", "activity change": "inconclusive: -28.3%"}, {"smiles": "COc1ccc(CNCC(=O)N2CCC3(CC2)OCCO3)cc1", "activity change": "inconclusive: -29.7%"}, {"smiles": "N#Cc1ccc(CN2Cc3ccccc3-n3nncc3C2)cc1", "activity change": "inconclusive: -28.7%"}, {"smiles": "COc1ccc(F)c(CNCCc2c(C)[nH]c3ccc(OC)cc23)c1", "activity change": "inactive: 6.18%"}, {"smiles": "C[n+]1ccc(-c2ccncc2)cc1", "activity change": "inconclusive: -27.3%"}, {"smiles": "C[N+]12CCC(CC1)C(=C(c1ccccc1)c1ccccc1)C2", "activity change": "inconclusive: -36.3%"}, {"smiles": "CCOC(=O)CNC(=O)N1Cc2ccccc2-n2nncc2C1", "activity change": "active: -33.2%"}, {"smiles": "CCOc1ccccc1N=C1SCCCN1C", "activity change": "active: -37.7%"}, {"smiles": "Cc1cc(C)c(C(=O)CN2CCOCC2)c(C)c1", "activity change": "inactive: -0.99%"}, {"smiles": "Cc1cccc(OCC(=O)N2CCN(Cc3ccncc3)CC2)c1", "activity change": "inconclusive: -28.3%"}, {"smiles": "O=C(Nc1ccc(C(=O)O)cc1)Oc1ccc(N(CCCl)CCCl)cc1", "activity change": "inactive: 1.15%"}, {"smiles": "O=C1NC(=O)C(=Cc2ccc(Oc3ccc([N+](=O)[O-])cc3)cc2)C(=O)N1", "activity change": "active: -32.7%"}, {"smiles": "Cc1ccc(/C=C2\\C(=O)NC(=S)N(c3ccccc3F)C2=O)s1", "activity change": "active: -32.5%"}, {"smiles": "COc1ccccc1N1C(=O)NC(=O)/C(=C/c2ccc3c(c2)Cc2ccccc2-3)C1=O", "activity change": "active: -32.5%"}, {"smiles": "O=C(COc1ccc2ccccc2c1)N1CCN(Cc2ccncc2)CC1", "activity change": "inconclusive: -28.4%"}, {"smiles": "COc1ccccc1N1CCN(Cc2ccc3c(c2)OCO3)CC1", "activity change": "inconclusive: -26.8%"}, {"smiles": "O=C1NC(=O)C(=Cc2ccc(OCCOc3ccc([N+](=O)[O-])cc3)cc2)C(=O)N1", "activity change": "inconclusive: -29.7%"}, {"smiles": "Cc1c(P(=S)(c2ccccc2)c2ccccc2)[n+]2ccccc2n1C", "activity change": "inconclusive: -46%"}, {"smiles": "Cc1cc(O)c2c(c1)C(=O)C13C(=C2O)C(=O)[C@H]2[C@@H](O)[C@@H]1[C@H]1[C@H](O)[C@@H]3C(=O)C3=C(O)c4c(O)cc(C)cc4C(=O)C312", "note": "(stereo partly drawn)", "activity change": "inactive: 14.6%"}, {"smiles": "COc1ccccc1N=C1SCCCN1C", "activity change": "active: -34.1%"}, {"smiles": "C[N+](C)(C)CC1CCCc2ccccc2C1=O", "note": "(stereo not drawn)", "activity change": "inconclusive: -25.4%"}, {"smiles": "CN1CCN(Cc2ccc(Br)s2)CC1", "activity change": "inconclusive: -27.6%"}, {"smiles": "CCCC[N+]12CCC(CC1)C(=C(c1ccccc1)c1ccccc1)C2", "activity change": "active: -106%"}, {"smiles": "COc1ccc(CN2CCN(C(=O)COc3cccc(C)c3)CC2)c(OC)c1", "activity change": "inconclusive: -27.6%"}, {"smiles": "COc1ccccc1CNCCc1cccc(Cl)c1", "activity change": "inconclusive: -26.9%"}, {"smiles": "O=C(O)c1ccc([N+](=O)[O-])c([N+](=O)[O-])c1", "activity change": "inactive: 11.9%"}, {"smiles": "Cc1cc(-c2ccccc2)cc(-c2ccccc2)[n+]1CCc1ccccc1", "activity change": "inactive: -2.88%"}, {"smiles": "C=CCN1C(=O)/C(=C/c2cccs2)C(=O)NC1=S", "activity change": "inconclusive: -27.4%"}, {"smiles": "Fc1ccc(C[n+]2c(-c3ccccc3)cc(-c3ccccc3)cc2-c2ccccc2)cc1", "activity change": "inconclusive: -28%"}, {"smiles": "O=[N+]([O-])c1cccc(CN2CCN(Cc3ccc(Br)cc3)CC2)c1", "activity change": "inconclusive: -28.6%"}, {"smiles": "CS(=O)(=O)c1ccc(C2=C(CNC(=O)c3nccs3)[C@H]3CC[C@@H](C2)N3CCOc2ccccc2)cc1", "activity change": "inactive: -14.6%"}, {"smiles": "O=C1NC(=S)NC(=O)C1=Cc1ccc(Br)s1", "activity change": "active: -38.1%"}, {"smiles": "Fc1ccccc1N1CCN(Cc2c(F)cccc2F)CC1", "activity change": "inconclusive: -26.3%"}, {"smiles": "COc1cccc(CN2CCNCC2)c1", "activity change": "inactive: -1.77%"}, {"smiles": "COC(=O)C1=C(c2ccc(OCc3ccccc3)cc2)C[C@@H]2CC[C@H]1N2C(=O)NCc1ccc(C(C)(C)C)cc1", "activity change": "inactive: -5.24%"}, {"smiles": "CC1CCCCN1Cc1cccnc1", "note": "(stereo not drawn)", "activity change": "inconclusive: -26.2%"}, {"smiles": "CSc1ccc(CN2CCN(Cc3ccccc3Cl)CC2)cc1", "activity change": "active: -30.6%"}, {"smiles": "O=C1NC(=O)C(=Cc2ccc(-c3ccc(F)cc3O)o2)C(=O)N1", "activity change": "inconclusive: -25%"}, {"smiles": "CN1CCC(N(C)Cc2cccnc2)CC1", "activity change": "inconclusive: -26.9%"}, {"smiles": "C[N+](C)(C)CC1CCCC(C[N+](C)(C)C)C1=O", "note": "(stereo not drawn)", "activity change": "active: -41%"}, {"smiles": "COc1ccc2[nH]c(C)c(CCNCCC3=C(C)CCCC3(C)C)c2c1", "activity change": "inconclusive: -28.2%"}, {"smiles": "COC(=O)C(Cc1ccc(N(CCCl)CCCl)cc1)N=Cc1ccccc1O", "note": "(stereo not drawn)", "activity change": "inactive: -7.22%"}]}]}
